B1: TWIST2, Q8WVJ9 (protein)
chain: MEEGSSSPVSPVDSLGTSEEELERQPKRFGRKRRYSKKSSEDGSPTPGKRGKKGSPSAQSFEELQSQRILANVRERQRTQSLNEAFAALRKIIPTLPSDKLSKIQTLKLAARYIDFLYQVLQSDEMDNKMTSCSYVAHERLSYAFSVWRMEGAWSMSASH
B2: MLX, Q9UH92 (protein)
chain: MTEPGASPEDPWVKASPVGAHAGEGRAGRARARRGAGRRGASLLSPKSPTLSVPRGCREDSSHPACAKVEYAYSDNSLDPGLFVESTRKGSVVSRANSIGSTSASSVPNTDDEDSDYHQEAYKESYKDRRRRAHTQAEQKRRDAIKRGYDDLQTIVPTCQQQDFSIGSQKLSKAIVLQKTIDYIQFLHKEKKKQEEEVSTLRKDVTALKIMKVNYEQIVKAHQDNPHEGEDQVSDQVKFNVFQGIMDSLFQSFNASISVASFQELSACVFSWIEEHCKPQTLREIVIGVLHQLKNQLY
B3: SPHK1, Q9NYA1 (protein)
chain: MDPAGGPRGVLPRPCRVLVLLNPRGGKGKALQLFRSHVQPLLAEAEISFTLMLTERRNHARELVRSEELGRWDALVVMSGDGLMHEVVNGLMERPDWETAIQKPLCSLPAGSGNALAASLNHYAGYEQVTNEDLLTNCTLLLCRRLLSPMNLLSLHTASGLRLFSVLSLAWGFIADVDLESEKYRRLGEMRFTLGTFLRLAALRTYRGRLAYLPVGRVGSKTPASPVVVQQGPVDAHLVPLEEPVPSHWTVVPDEDFVLVLALLHSHLGSEMFAAPMGRCAAGVMHLFYVRAGVSRAMLLRLFLAMEKGRHMEYECPYLVYVPVVAFRLEPKDGKGVFAVDGELMVSEAVQGQVHPNYFWMVSGCVEPPPSWKPQQMPPPEEPL
B4: ZNF146, Q15072 (protein)
chain: MSHLSQQRIYSGENPFACKVCGKVFSHKSNLTEHEHFHTREKPFECNECGKAFSQKQYVIKHQNTHTGEKLFECNECGKSFSQKENLLTHQKIHTGEKPFECKDCGKAFIQKSNLIRHQRTHTGEKPFVCKECGKTFSGKSNLTEHEKIHIGEKPFKCSECGTAFGQKKYLIKHQNIHTGEKPYECNECGKAFSQRTSLIVHVRIHSGDKPYECNVCGKAFSQSSSLTVHVRSHTGEKPYGCNECGKAFSQFSTLALHLRIHTGKKPYQCSECGKAFSQKSHHIRHQKIHTH
B5: HNF1A, P20823 (protein)
chain: MVSKLSQLQTELLAALLESGLSKEALIQALGEPGPYLLAGEGPLDKGESCGGGRGELAELPNGLGETRGSEDETDDDGEDFTPPILKELENLSPEEAAHQKAVVETLLQEDPWRVAKMVKSYLQQHNIPQREVVDTTGLNQSHLSQHLNKGTPMKTQKRAALYTWYVRKQREVAQQFTHAGQGGLIEEPTGDELPTKKGRRNRFKWGPASQQILFQAYERQKNPSKEERETLVEECNRAECIQRGVSPSQAQGLGSNLVTEVRVYNWFANRRKEEAFRHKLAMDTYSGPPPGPGPGPALPAHSSPGLPPPALSPSKVHGVRYGQPATSETAEVPSSSGGPLVTVSTPLHQVSPTGLEPSHSLLSTEAKLVSAAGGPLPPVSTLTALHSLEQTSPGLNQQPQNLIMASLPGVMTIGPGEPASLGPTFTNTGASTLVIGLASTQAQSVPVINSMGSSLTTLQPVQFSQPLHPSYQQPLMPPVQSHVTQSPFMATMAQLQSPHALYSHKPEVAQYTHTGLLPQTMLITDTTNLSALASLTPTKQVFTSDTEASSESGLHTPASQATTLHVPSQDPASIQHLQPAHRLSASPTVSSSSLVLYQSSDSSNGQSHLLPSNHSVIETFISTQMASSSQ
B6: SALL2, Q9Y467 (protein)
chain: MSRRKQRKPQQLISDCEGPSASENGDASEEDHPQVCAKCCAQFTDPTEFLAHQNACSTDPPVMVIIGGQENPNNSSASSEPRPEGHNNPQVMDTEHSNPPDSGSSVPTDPTWGPERRGEESSGHFLVAATGTAAGGGGGLILASPKLGATPLPPESTPAPPPPPPPPPPPGVGSGHLNIPLILEELRVLQQRQIHQMQMTEQICRQVLLLGSLGQTVGAPASPSELPGTGTASSTKPLLPLFSPIKPVQTSKTLASSSSSSSSSSGAETPKQAFFHLYHPLGSQHPFSAGGVGRSHKPTPAPSPALPGSTDQLIASPHLAFPSTTGLLAAQCLGAARGLEATASPGLLKPKNGSGELSYGEVMGPLEKPGGRHKCRFCAKVFGSDSALQIHLRSHTGERPYKCNVCGNRFTTRGNLKVHFHRHREKYPHVQMNPHPVPEHLDYVITSSGLPYGMSVPPEKAEEEAATPGGGVERKPLVASTTALSATESLTLLSTSAGTATAPGLPAFNKFVLMKAVEPKNKADENTPPGSEGSAISGVAESSTATRMQLSKLVTSLPSWALLTNHFKSTGSFPFPYVLEPLGASPSETSKLQQLVEKIDRQGAVAVTSAASGAPTTSAPAPSSSASSGPNQCVICLRVLSCPRALRLHYGQHGGERPFKCKVCGRAFSTRGNLRAHFVGHKASPAARAQNSCPICQKKFTNAVTLQQHVRMHLGGQIPNGGTALPEGGGAAQENGSEQSTVSGARSFPQQQSQQPSPEEELSEEEEEEDEEEEEDVTDEDSLAGRGSESGGEKAISVRGDSEEASGAEEEVGTVAAAATAGKEMDSNEKTTQQSSLPPPPPPDSLDQPQPMEQGSSGVLGGKEEGGKPERSSSPASALTPEGEATSVTLVEELSLQEAMRKEPGESSSRKACEVCGQAFPSQAALEEHQKTHPKEGPLFTCVFCRQGFLERATLKKHMLLAHHQVQPFAPHGPQNIAALSLVPGCSPSITSTGLSPFPRKDDPTIP
B7: ZNF528, Q3MIS6 (protein)
chain: MALTQGPLKFMDVAIEFSQEEWKCLDPAQRTLYRDVMLENYRNLVSLGICLPDLSVTSMLEQKRDPWTLQSEEKIANDPDGRECIKGVNTERSSKLGSNAGNKPCKNQLGFTFQLHLSDLQLFQAERKISGCKHFEKPVSDNSSVSPLEKISSSVKSHLLNKYRNNFDHAPLLPQEQKAHIREKAYKCNEHGQVFRASASLTNQVIHNADNPYKCSECGKVFSCSSKLVIHRRMHTGEKPYKCHECGKLFSSNSNLSQHQRIHTGEKPYKCHECDKVFRSSSKLAQHQRIHTGEKPYKCHECDKVFNQIAHLVRHQKIHTGEKPYSCNKCGKVFSRHSYLAEHQTVHTGEKPYKCEECGKAFSVRSSLITHQLIHTGRKPYKCKECDKVFGRKCFLTSHQRIHTRERPYGCSQCGKIFSQKSDLIRHRKTHTDEKPYKCNKCGTAFREFSDLTAHFLIHSGEKPYECKECGKVFRYKSSLTSHHRIHTGEKPYKCNRCGKVFSRSSNLVCHQKIHTGEKPYKCNQCGKVFNQASYLTRHQIIHTGERPYRCSKCGKAFRGCSGLTAHLAIHTEKKSHECKECGKIFTQKSSLTNHHRIHIGEKPYKCTLCSKVFSHNSDLAQHQRVHS

Some of the results follow. Binding of human transcription factors and regulators to the viral nucleoprotein by AlphaScreen, crude cell-free proteins, amounts not normalised, one pass. Fold of the Venus control; higher = more signal. No active / inactive call. Single-pass screen; sequences are the whole Swiss-Prot entries looked up by name.

In the assay the target is nucleoprotein N of Crimean-Congo hemorrhagic fever virus. As to the kind of experiment: AlphaScreen luminescence signal relative to Venus negative control (fold); higher = stronger binding to CCHFV N. As to the method:
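AlphaScreen binding of cell-free made, FLAG-GST-tagged human transcription factors and regulators (crude translation products) to biotinylated N protein; signal as fold of the FLAG-GST-Venus control. One pass.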
A general note: Bead proximity is the source of the signal in Alpha formats.
Take B1: the AlphaScreen luminescence signal is 1.91.
In the case of B2 it was 1.44; in that of B3, 2.79; in that of B4, 1.72.
In the case of B5 it was 3.02; in that of B6, 1.12; in that of B7, 3.02.

(Values after the supplement of paper PMC12423691.)
